# Source: PubChem BioAssay AID1347073 (National Center for Advancing Translational Sciences (NCATS), 2019)
# Screen size: about 45,000 compounds; about 200 (0.44%) were called active. Another 7% or so got no clear call; they are omitted. Calls come from the whole dose curve; as a rule, active = well fitted activation curve with a large enough effect; inconclusive = small, poorly fitted or top-dose-only effect; inactive = no such curve, though single readings can be large or run the other way. The list shows a part of the results.
# Test: qHTS of TDP-43 Inhibitors: NCGC Sytravon Library Screen; note: 0% is about no effect; nearly all actives have a fitted effect of over 55% in size
# Settings: yeast TDP-43 toxicity rescue, BacTiter-Glo growth, 24 h; series mostly up to 46.1 µM; growth rescue (activation): at the top concentration
# In short: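 TDP-43-expressing yeast, pregrown in raffinose, seeded at OD600 0.02 in galactose medium with compound for 24 hr at 30 deg C. Growth read by BacTiter-Glo luminescence, so rescue of toxicity appears as activation.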
row,Structure (SMILES),growth rescue (activation)
1,CN(C=[N+](C)C)c1cccc2c1C(=O)c1ccccc1C2=O,inactive: 16.6%
2,Cc1cc2c(=O)n(C)c(SCC(=O)Nc3cccc(O)c3)nc2s1,inactive: -8.59%
3,O=C(CN1C(=O)C2CCCCC2C1=O)N1CCN(c2ccc(F)cc2)CC1 (configuration not stated),inactive: 4.45%
4,O=C(NNC(=O)c1cccnc1)c1ccncc1,inactive: 1.67%
5,CC(=O)c1c(C)oc2ccc(NS(=O)(=O)c3ccc(C)cc3)cc12,inactive: -3.78%
6,Cc1cc(/C=C2/C(=N)N3C(=NC2=O)SN=C3S(C)(=O)=O)c(C)n1-c1ccccc1F,inactive: 1.62%
7,CCCN1CCN(C(=O)Nc2cccc(C(F)(F)F)c2)CC1,inactive: -5.72%
8,Cc1ccc(/C=N/NC(=O)Nc2ccccc2)o1,inactive: 17.3%
9,CSc1nn(-c2ccc(C(=O)OC(C(=O)NC(N)=O)C(C)C)cc2)c(=S)s1 (configuration not stated),inactive: -8.26%
10,Cc1ccc(-c2csc(NC(=S)NC(=O)c3ccco3)n2)cc1,inactive: 18.8%
11,Nc1cc(N)nc(SCC(=O)N2CCc3ccccc32)n1,inactive: 16.1%
12,O=C(NC1CCCCCC1)C1CCN(C(=O)c2cccc(Cl)c2)CC1,inactive: 21.6%
13,CCc1ccc(NC(=O)Nc2ccncc2)cc1,inactive: 13.6%
14,CCOc1ccc(NC(=O)CN2C(=O)CSC2=O)cc1,inactive: -4.14%
15,Cc1ccc(CSCCC(=O)NCCc2ccc(Cl)cc2)cc1,inactive: 24.4%
16,O=C(NC1(C(F)(F)F)N=C(c2ccccc2)NC1=O)c1ccccc1F (configuration not stated),inactive: 3.43%
17,COc1cccc(C(Nc2ccccn2)c2c(NC(=O)c3ccco3)sc(C)c2C)c1 (configuration not stated),inactive: 15.2%
18,COc1ccc(CN2CC(C(=O)NCCCN3CCN(C)CC3)CC2=O)cc1 (configuration not stated),inactive: -22%
19,O=C(O)c1cccnc1Nc1ccc(Cl)cc1,inactive: -7.91%
20,Cc1c(Br)c(O)c(Br)c(O)c1/C=N/n1c(-c2ccccc2)n[nH]c1=S,inactive: 24.9%
21,O=C(CN1CCC(n2nnc3cc(C(F)(F)F)ccc32)CC1)Nc1ccc2c(c1)CCC2,inactive: -1.26%
22,O=C(COC(=O)c1ccc(NS(=O)(=O)c2ccc(Br)s2)cc1)NC1CCCC1,inactive: 2.71%
23,Cc1sc2ccccc2[n+]1CC(=O)O,inactive: 23.2%

row,Structure (SMILES),growth rescue (activation)
1,CC(=O)Nc1ccc2c(COC(=O)[C@@H](NS(=O)(=O)c3ccc(C)cc3)C(C)C)cc(=O)oc2c1,inactive: -7.77%
2,CCS(=O)(=O)N1CCCC(C(=O)NCCCOC)C1 (configuration not stated),inactive: 8.88%
3,Cc1c(NC(=S)NC(=O)CC(C)C)c(=O)n(-c2ccccc2)n1C,inactive: -7.64%
4,CCC1=NN(C(=O)c2ccc(Br)cc2)C(O)(c2ccc(C)cc2)C1 (configuration not stated),inactive: 8.48%
5,Cc1ccc(N2CC(C(=O)OCC(=O)c3ccc(F)cc3)CC2=O)cc1 (configuration not stated),inactive: 5.91%
6,Cc1ccc(C(=O)NC(C)C2CC3CCC2C3)c(C)c1 (configuration not stated),inactive: 13.8%
7,Cc1csc(NC(=O)Cc2ccccc2[N+](=O)[O-])n1,inactive: 3.16%
8,CC(=O)c1cccc(NC(=O)CCS(=O)(=O)c2ccc3c(c2)n(C)c(=O)c(=O)n3C)c1,inactive: 12.2%
9,O=C(CSc1nc2ccc(Cl)cc2[nH]1)c1c[nH]c2ccccc12,inactive: 4.11%
10,COc1ccc(CNC(=O)CN(Cc2ccc(OC)cc2)C(=O)CCC(=O)Nc2ccccn2)cc1,inactive: -4.04%
11,CCCOC(=O)C1[C@H]2C(=O)N(C(C)c3ccc(OC)cc3)C[C@]23C=C[C@H]1O3 (some centres not stated),inactive: 2.07%
12,COc1cccc(C2C(C(=O)c3cccs3)=C(O)C(=O)N2CCN2CCOCC2)c1OC (configuration not stated),inactive: 9.76%
13,CCOc1ccc(Br)cc1S(=O)(=O)NC(=O)c1ccccc1,inactive: -3.13%
14,O=Cc1ccc(C(=O)OCC(=O)NCc2ccco2)cc1,inactive: 15.1%
15,COc1ccc(C(=O)/C(=C\c2ccco2)N2C=CC=CC2=C(C#N)C#N)cc1,inactive: 25.6%
16,COCCN1Cc2cccc(C(=O)NCC3CCN(CC(C)C)C3)c2C1=O (configuration not stated),inactive: 2.77%
17,CCOC(=O)N1CCN(C(=S)NC(=O)C23CC4CC(CC(C4)C2)C3)CC1,inactive: 12.4%
18,CC(C)c1cc(C(=O)NCc2ccc(F)cc2)no1,inactive: 16.3%
19,O=C(N/N=C1\SCC(=O)N1CCc1ccccc1)c1cccs1,inactive: -12.7%
20,COc1ccc(OCC(=O)N2c3ccccc3CCc3ccccc32)cc1,inactive: 6.51%
21,Cc1ccc(S(=O)(=O)Cn2nnnc2C(C(C)C)N2CCC(O)CC2)cc1 (configuration not stated),inactive: 12.4%
22,O=C(COc1cccc(-n2cnnn2)c1)Nc1ccc([N+](=O)[O-])cc1,inactive: 9.72%
23,O=C(OCC(=O)N1CCOCC1)c1ccc(F)cc1Cl,inactive: 0.59%

row,Structure (SMILES),growth rescue (activation)
1,CCOc1ccc(C(C(=O)NCCOC)N(CCOC)C(=O)CCC(=O)Nc2ccccn2)cc1 (configuration not stated),inactive: 5.78%
2,CN(Cc1ccc(Cl)cc1)C(=O)c1ccc2ccccc2n1,inactive: 28%
3,CCOc1ccc(NC(=O)C2CCC(CNc3c(N4CCC(C)CC4)c(=O)c3=O)CC2)cc1 (configuration not stated),inactive: 16.3%
4,N#CCCN(C(=O)COC(=O)c1ccc(CNS(=O)(=O)c2ccc(F)c(Cl)c2)cc1)c1ccc(F)cc1,inactive: 6.8%
5,COc1cc(/C=N/N(CCO)C2=NS(=O)(=O)c3ccccc32)cc(OC)c1OC,inactive: 6.81%
6,COc1ccc(S(=O)(=O)NCC2CCCO2)cc1NC(=O)c1ccccc1 (configuration not stated),inactive: 6.43%
7,CC(C)(C)SCCNC(=O)/C=C/c1ccc([N+](=O)[O-])cc1,inactive: 31%
8,Cc1ccc(S(=O)(=O)N2CCC(c3nc4c(nnn4Cc4ccccc4)c(=O)[nH]3)CC2)cc1,inactive: 15.5%
9,CC(=O)c1ccc2c(c1)C1C=CCC1C(c1ccc(S(=O)(=O)N3CCOCC3)cc1)N2 (configuration not stated),inactive: 8.27%
10,O=C(NNC(=O)c1ccc(Cl)nc1)c1ccc(Br)cc1,inactive: 4.62%
11,O=C(CN1CCCCCC1)N/N=C/c1cccc(Cl)c1Cl,inactive: 0.852%
12,COCCCNC(=O)CSc1nc2sc(C(=O)OC)c(C)c2c(=O)n1N,inactive: -5.41%
13,O=S(=O)(c1cccc2nsnc12)N1CCN(c2ccc(F)cc2)CC1,inactive: 28.7%
14,CCc1nc2ccc(C(=O)NCCc3c[nH]c4ccccc34)cn2c1N(C)CCCc1ccccc1,inactive: 3.08%
15,CCN(CC(=O)Nc1cc(Cl)cc(Cl)c1)CC(=O)NC1CCS(=O)(=O)C1 (configuration not stated),inactive: -14.7%
16,COc1cc(C2Nc3ccccc3NC3=C2C(=O)CC(C)(C)C3)cc(OC)c1OC (configuration not stated),inactive: 10.8%
17,Cc1ccc(CN2CCN(/N=C/c3ccc(Cl)c([N+](=O)[O-])c3)CC2)cc1,inactive: 1.51%
18,CCCCNC(=O)c1ccc2nc(CC)c(N(CC)CCOC)n2c1,inactive: -7.65%
19,CN(CC(=O)NCC1CCCO1)S(=O)(=O)c1ccc(Br)cc1 (configuration not stated),inactive: 1.46%
20,Cc1cc(NC(=O)CSCC(=O)N2CCN(c3ccccc3)CC2)no1,inactive: 6.69%
21,CCN(CC)S(=O)(=O)c1ccc(C(=O)NC(C)(C)C)cc1,inactive: -11%
